Consider 58 compounds from PubChem BioAssay AID360 (National Center for Advancing Translational Sciences (NCATS), 2006).

Among all 48,000 compounds or so, about 550 (1.1%) were called active. About 4% were inconclusive and are not listed. Cut-off read from the data, not from the text of the source: active = potency below about 15 µM; inconclusive = mostly about 16 µM to 33 µM; inactive = weaker than that. The list shows a part of the results. A value given as a limit tells only on which side of the number the result lay.
Potency is the fitted concentration of half-maximal effect.

UniProt P04062, sequence (P04062 whole entry, looked up): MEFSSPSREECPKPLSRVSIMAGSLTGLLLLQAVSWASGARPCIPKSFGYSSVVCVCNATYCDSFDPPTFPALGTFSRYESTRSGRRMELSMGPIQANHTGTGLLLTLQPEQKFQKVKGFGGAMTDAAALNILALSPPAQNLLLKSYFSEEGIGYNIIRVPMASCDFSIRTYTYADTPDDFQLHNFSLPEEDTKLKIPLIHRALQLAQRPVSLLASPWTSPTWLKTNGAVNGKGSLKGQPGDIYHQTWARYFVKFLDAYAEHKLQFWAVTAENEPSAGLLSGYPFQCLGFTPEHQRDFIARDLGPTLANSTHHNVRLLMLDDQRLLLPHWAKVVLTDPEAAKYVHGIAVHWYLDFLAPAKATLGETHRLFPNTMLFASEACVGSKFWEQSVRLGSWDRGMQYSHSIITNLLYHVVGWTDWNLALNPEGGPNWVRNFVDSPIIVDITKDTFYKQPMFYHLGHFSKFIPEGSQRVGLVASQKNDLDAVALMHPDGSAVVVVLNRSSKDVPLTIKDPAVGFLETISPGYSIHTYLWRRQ

The test concerns the target Lysosomal acid glucosylceramidase (Homo sapiens) (UniProt P04062). Kind of test: Glucocerebrosidase.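 Note: the screen sought inhibitors.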 Conditions: purified enzyme, resorufin glucoside fluorescence (screen aimed at inhibitors), 20 min; series mostly up to 77 µM. Put shortly:
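Normal human glucocerebrosidase (0.2 nM final) was assayed with resorufin β-D-glucopyranoside (30 uM final) in 50mM citric acid/KH2PO4, 10mM sodium taurocholate, 0.01% tween-20, pH 5.9. Compounds were titrated; fluorescence (Ex 548, Em 600) read after 20 min at RT.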
Turning to `CCOCC(=O)Nc1ccc(S(=O)(=O)Nc2ncccn2)cc1`, the Potency is inactive: > 76.9 µM.
The same measure for `COc1ccccc1COCC(O)CNCC1(N2CCCCC2)CCCCC1` (stereo not drawn): inactive: > 76.9 µM; for `CCc1ccc(-c2nc(CN3CCC(C(=O)NCc4ccco4)CC3)c(C)o2)cc1`: inactive: > 76.9 µM; for `CCN1CCN(c2nc(-c3cccnc3)nc3ccccc23)CC1`: inactive: > 76.9 µM.
For `O=C(COC(=O)Cc1cccs1)Nc1ccccc1`, the Potency is inactive: > 76.9 µM.
The figure for `Cc1ccc2cccc(S(=O)(=O)N3CCN(c4cccc(Cl)c4)CC3)c2n1` is inactive: > 76.9 µM.
`CC(C)Oc1ccc2nnnn2n1`: the Potency is inactive: > 76.9 µM.
Consider `CCOCCCN1C(=O)CN(C2CCCCC2)C(=O)C1c1ccc(OCC)c(OC)c1` (stereo not drawn), for which the Potency is inactive: > 76.9 µM.
As for `CCOC(=O)COn1c(=O)c[n+]([O-])c2ccccc21`, the Potency is inactive: > 76.9 µM.
The figure for `Cc1ccc(C(=O)Nc2ccccc2C(N)=O)o1` is inactive: > 76.9 µM.
The same measure for `COC(=O)c1sc(N)c(C(=O)OC)c1CSc1nnnn1C`: inactive: > 76.9 µM.
The same measure for `O=c1cc(CN2CCN(c3ccccc3)CC2)c2cc(O)c(-c3ccccc3)cc2o1`: inactive: > 76.9 µM; for `O=C(CCn1c(=O)oc2ccccc21)NCCN1CCc2ccccc2C1`: inactive: > 76.9 µM.
For `CCOc1ccc(C2/C(=C(/O)c3ccccc3)C(=O)C(=O)N2CCCN(C)C)cc1OC` (stereo not drawn), the Potency was inactive: > 76.9 µM.
The figure for `Cc1nc(N2CCN(Cc3ccccc3)CC2)nc2c1C(=O)CC(C)C2` (stereo not drawn) is inactive: > 76.9 µM; for `CCOC(=O)c1ccccc1NC(=O)c1ccccc1SC` it is inactive: > 76.9 µM.
The same measure for `CCN(CC)C(=O)CN1C(=O)C2CC=C(Cl)CC2C1=O` (stereo not drawn): inactive: > 76.9 µM; for `O=C(NCC1CCCO1)c1ccc(Cl)c(F)c1F` (stereo not drawn): inactive: > 76.9 µM.
As to `Cc1cccc(C(=O)OCC(=O)Nc2ccc(N3CCCCC3)cc2)c1O`, the Potency was inactive: > 76.9 µM.
On to `CN(C)c1cccc(C(=O)NC2CCCCCC2)c1`, for which the Potency was inactive: > 76.9 µM.
The same measure for `CC(=O)c1cc(F)c(N2CCN(C(=O)c3ccco3)CC2)cc1C`: inactive: > 76.9 µM.
The same measure for `O=C(c1cnn2c(C(F)(F)F)cc(-c3ccc4c(c3)OCO4)nc12)N1CCCCC1`: inactive: > 76.9 µM; for `CCCOC(=O)NC1C(NC(=O)OCCC)N(C)C(=O)N1C` (stereo not drawn): inactive: > 76.9 µM.
The same measure for `COC(=O)c1ccc2c(=O)n(CCC3=CCCCC3)c(SCC(=O)N3CCCC3)nc2c1`: inactive: > 76.9 µM; for `CN(C(=O)c1ccccc1)C1(C)CCS(=O)(=O)C1` (stereo not drawn): inactive: > 76.9 µM.
For `COCCNC(=O)C(C#N)c1nc2ccccc2nc1N1CCCCCC1` (stereo not drawn), the Potency was inactive: > 76.9 µM.
The same measure for `CCOC(=O)c1nn(-c2ccc(OC)cc2)c(=O)c2c(NC(=O)c3ccco3)scc12`: inactive: > 76.9 µM; for `CC(C)(C)OC(=O)N1CCN(c2ccc(NC(=O)c3cc4ccccc4oc3=O)cc2)CC1`: inactive: > 76.9 µM.
For `CCOc1nc(C)ccc1-c1noc(-c2ccccc2OC)n1`, the Potency is inactive: > 76.9 µM.
Consider `COc1ccc(-n2c(C)nc3c(cnn3-c3ccc(Cl)cc3)c2=O)cc1`, for which the Potency was inactive: > 76.9 µM.
The same measure for `COc1ccc(NC(=O)CCNC(=O)Cn2ccc3ccccc3c2=O)c(OC)c1`: inactive: > 76.9 µM.
The figure for `O=C(CCCn1c(SCC(=O)NCC2CCCO2)nc2ccccc2c1=O)NCC1CCCO1` (stereo not drawn) is inactive: > 76.9 µM.
Take `CC(=O)C1C(=O)C=C(c2ccco2)CC1c1ccccc1` (stereo not drawn): the Potency was inactive: > 76.9 µM.
Consider `O=C(Nc1ncccn1)C1CCCN1S(=O)(=O)c1ccc(Cl)c(Cl)c1` (stereo not drawn), for which the Potency is inactive: > 76.9 µM.
The same measure for `COc1ccc(OC)c(S(N)(=O)=O)c1`: inactive: > 76.9 µM; for `O=C1CC(c2nc3ccccc3[nH]2)CN1c1ccccc1` (stereo not drawn): inactive: > 76.9 µM.
The figure for `c1ccc(COc2ccc(OCCOCCn3cncn3)cc2)cc1` is inactive: > 76.9 µM.
The figure for `COc1cc(C2CC(=O)c3cnc(NC(=O)COc4ccccc4)nc3C2)cc(OC)c1OC` (stereo not drawn) is inactive: > 76.9 µM.
As for `O=C(CN1CCOCC1)N1CCN(c2nnc(-c3ccccc3)c3ccccc23)CC1`, the Potency was inactive: > 76.9 µM.
The figure for `COc1cc(NS(C)(=O)=O)c(OC)cc1NC(=O)c1cccc(F)c1` is inactive: > 76.9 µM; for `CCCS(=O)(=O)c1cn2cccc(N)c2c1S(=O)(=O)CCC` it is inactive: > 76.9 µM; for `Cn1c(=O)c2sccc2n2c(CCCC(=O)NCc3ccc4c(c3)OCO4)nnc12` it is inactive: > 76.9 µM.
For the compound `Cc1ccc(S(=O)(=O)N2CCOCC2)cc1C(=O)NCc1cn2ccsc2n1`, the Potency was inactive: > 76.9 µM.
The same measure for `Cc1ccccc1NC1=NC(C)(C)N=C(N)N1`: inactive: > 76.9 µM; for `Cc1ccc(/C=c2\sc3nc(-c4cccs4)nn3c2=O)o1`: inactive: > 76.9 µM; for `Cn1c(=O)c2ncn(CC(=O)Nc3ccc4c5c(cccc35)CC4)c2n(C)c1=O`: inactive: > 76.9 µM.
The same measure for `N#Cc1c(/N=C/c2cccs2)sc2c1CCCCC2`: inactive: > 76.9 µM; for `Cc1ccc(-c2csc(NC(=O)c3ccno3)n2)cc1`: inactive: > 76.9 µM; for `c1ccc(-c2nc(-c3ccco3)cs2)nc1`: inactive: > 76.9 µM.
As for `Cc1nn(Cc2ccccc2)c(C)c1NC(=O)CCC(=O)O`, the Potency is inactive: > 76.9 µM.
The figure for `COC(=O)CCn1nnc(-c2ccc(C(C)C)cc2)n1` is inactive: > 76.9 µM; for `CCn1c(COc2ccccc2)nnc1SCC(=O)CC(=O)Nc1ccccc1OC` it is inactive: > 76.9 µM; for `O=C(CCc1nc(-c2ccccc2F)no1)NC1CCN(Cc2ccccc2)CC1` it is inactive: > 76.9 µM.
The figure for `CCCCn1c(NCCN(C)C)nc2c1c(=O)[nH]c(=O)n2C` is inactive: > 76.9 µM.
The figure for `O=C(CN1C(=O)c2cccc3cccc1c23)NCC1CCCO1` (stereo not drawn) is inactive: > 76.9 µM.
As to `CC1(C)CC(=O)C2=C(C1)NC(Nc1nc3ccccc3o1)=NC21CCCCC1`, the Potency was inactive: > 76.9 µM.
`O=C(O)C1CCN(C(=O)COc2ccc3c4c(c(=O)oc3c2)CCC4)CC1`: the Potency is inactive: > 76.9 µM.
The figure for `CC1CCCCC1NC(=O)Cn1nc(-c2ccccc2)ccc1=O` (stereo not drawn) is inactive: > 76.9 µM.
